Data as given in publication PMC12040169 (PLOS Biology, 2025).
This is one part of the list.

system: T1, C. trachomatis L2/434/Bu expressing GFP (CTL2-GFP); design: species or system HeLa; C. trachomatis total inclusion area by high-content imaging, normalised to DMSO; conditions: total inclusion area; 28.5 h, 10 µM; inhibitor
T1 construct: L2/434/Bu GFP intracellular growth in HeLa cells
Method in brief: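 Host cell viability was gauged from Hoechst-stained nuclei counts, while chlamydial growth was taken from total inclusion area and inclusion number per well. Cells were fixed and imaged by high-content microscopy once bulk GFP and resorufin fluorescence had been measured.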

SMILES	% of control remaining
CC(C)n1ccnc1CNc1cccc(OCC(=O)N2CCCC2)c1 [CBK305377]	134.254
c1cc(-c2nnc3n2CCCCS3)ccn1 [CBK288543]	81.7486
COCc1ccc(Nc2ccccc2S(=O)(=O)c2ccccc2)cc1OCC1CCN(C(=O)OC(C)(C)C)CC1 [CBK175577]	77.1724
COCCn1nnnc1C(c1cc2c(C)ccc(C)c2[nH]c1=O)N1CCN(C(=O)c2ccco2)CC1 (centres unmarked) [CBK111563]	62.5662
COc1ccc([C@@]23CC[C@@H](NC(=S)NC(C)=O)C[C@@H]2N(Cc2ccccc2)CC3)cc1OC [CBK025503T]	83.1215
Cc1ccc(S(=O)(=O)n2ccc3ccc(N4CCN(C)CC4)nc32)cc1 [CBK063327]	81.7934
Cc1csc(C(Cc2ccsc2)NC(=O)CN2CCCC2=O)n1 (centres unmarked) [CBK285046]	81.8972
COc1ccc(C2NC(C(=O)O)CS2)cc1CN1CCOCC1 (centres unmarked) [CBK287132]	106.34
Cc1ccc(C2=NN(c3ccccc3)C(c3cn(CCC(=O)O)nc3-c3ccccc3)C2)cc1 (centres unmarked) [CBK296110]	86.6864
CCc1nn(CC(=O)NC2CCC2)c(=O)c2cc3ccsc3n12 [CBK284136]	75.3816
Cc1ccc(NC(=O)c2cscn2)c(C)n1 [CBK200297]	79.611
Cn1ccnc1Sc1nc2ccccc2nc1N1CCCC1 [CBK093791]	100.365
O=C(NCC1CCNCC1)c1ccncc1 [CBK267637C]	105.155
Cc1cc(NC(=O)c2cc(Br)cnc2NCc2cccnc2)n(C)n1 [CBK076358]	92.1835
Cc1ccc(Cl)cc1-n1cc(-c2ccc(F)cc2)nn1 [CBK113128]	98.6743
Cc1nc(NCc2ccc(C(F)(F)F)cc2)nc(N2CCOCC2)n1 [CBK023863]	67.3638
CO/N=C(N)/C(N)=N/OC [CBK019780]	34.8058
O=C(Cn1c(-c2cncs2)nc2ccccc21)NCc1ccc2c(c1)OCO2 [CBK264699]	102.565
CCc1cccc2c(CC(=O)N(C)CCN(C)C)c(C)[nH]c12 [CBK282673]	92.2749

SMILES	% of control remaining
O=C(c1ccc(C#CC2(O)CCCCC2)cc1)N1CCC(C(O)(c2ccccc2)c2ccccc2)CC1 [CBK033758]	65.5621
COc1ccc(C)cc1S(=O)(=O)N1CCc2c(CN3CCN(C)CC3)cccc21 [CBK113628T]	71.9902
Cn1cccc1CNCCc1ccc(S(N)(=O)=O)cc1 [CBK267831C]	100.754
CC(C)N1CCC(C(=O)NC(=O)NCCc2ccc3c(c2)OCO3)CC1 [CBK034804]	97.6996
COc1ccccc1C(=O)N1CCC(C(=O)N(C)C(c2ccccc2)c2ncccc2C)CC1 (centres unmarked) [CBK060531]	100.916
CCOc1cc(CCC(=O)NC(C)c2ccccc2)on1 (centres unmarked) [CBK282597]	127.745
O=[N+]([O-])c1cccc(-c2noc(COc3ccc(Br)cc3Cl)n2)c1 [CBK264452]	95.5261
CC(=O)c1cn(CCC(=O)NC2CCCN(C)C2)c2ccccc12 (centres unmarked) [CBK282503]	102.579
COc1cccc2cc(C(=O)NCc3ccc(NS(C)(=O)=O)cc3)oc12 [CBK161479]	72.5732
C[C@@H]1CN(Cc2ccco2)[C@H](C)CN1CC(=O)Nc1nc2c(s1)CCCC2 [CBK286530]	113.902
CN1CCN(CCCNC(=O)N2CCN(c3ccccc3)CC2)CC1 [CBK155168]	67.8789
O=C(O)COc1ccc(N2C(=O)c3ccc(Oc4cccc([N+](=O)[O-])c4)cc3C2=O)cc1 [CBK264259]	107.181
CCN1C(=O)CC2(C1=O)C(=O)N(CC)c1ccc(C)cc12 (centres unmarked) [CBK075140]	103.735
O=C(C1=C(O)C(=O)N(Cc2cccnc2)C1c1ccncc1)c1ccc(Cl)cc1 (centres unmarked) [CBK264513]	106.025
CN(c1cccc(NS(=O)(=O)c2ccc3ccccc3c2)c1)S(C)(=O)=O [CBK267507]	117.68
C=CCN1C(=O)C2(CC(=O)N(Cc3ccc(OC)c(OC)c3)C2=O)c2ccccc21 (centres unmarked) [CBK075148]	87.2362
O=C(Nc1ccccc1)Nc1ccc(=O)n2c1[C@@H]1C[C@@H](CN(C(=O)c3ccc(F)cc3)C1)C2 [CBK288714]	98.3949
CN1CCC(N(C)C(=O)c2cc3oc(-c4ccccc4)nc3c(=O)n2C)C1 (centres unmarked) [CBK200424T]	78.6086
Cn1c(-c2ccccc2F)n[nH]c1=S [CBK028811]	100.974
